# In PubChem BioAssay (Tox21):
# The shares of active, inactive and inconclusive entries below differ from those in the screen. For some of these results: Where the call is inconclusive, the potency comes from a doubtful curve fit. Active and inactive are the calls of the source. Unless noted, calls come from the whole dose curve; as a rule, active = well fitted curve in the direction sought with a large enough effect in the repeat runs; inconclusive = weak or mixed curves; inactive = no such curve, though single readings can be large; an effect the other way counts as inactive or inconclusive.
# What was measured:
# [1] = qHTS assay to identify small molecule antagonists of the estrogen related receptor (ERR) signaling pathway - cell viability counter screen (AID 1224818); note: potency is the fitted concentration of half-maximal effect;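 note: viability measured after 17.5 h of compound exposure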
# How it was run: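 Here, ERR cells are plated at 2,000 cells per well, allowed 6 h to attach, and treated with compounds in DMSO for 17.5 h at 37 C. CellTiter-Fluor is then added and fluorescence read after 30 min.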
# [2] = molecular target: Cytochrome P450 3A4 (Homo sapiens) (UniProt P08684); assay: Cytochrome P450 Family 3 Subfamily A Member 4 (CYP3A4) small molecule antagonists: luciferase reporter qHTS assay (AID 1671201); note: nearly all actives have a fitted effect of over 50% in size; note: potency is the fitted concentration of half-maximal effect; for activity change, negative = inhibition: % is set by controls: 0 for no effect and ±100 for the full control effect
# Sequence of UniProt P08684 (P08684 whole entry, looked up): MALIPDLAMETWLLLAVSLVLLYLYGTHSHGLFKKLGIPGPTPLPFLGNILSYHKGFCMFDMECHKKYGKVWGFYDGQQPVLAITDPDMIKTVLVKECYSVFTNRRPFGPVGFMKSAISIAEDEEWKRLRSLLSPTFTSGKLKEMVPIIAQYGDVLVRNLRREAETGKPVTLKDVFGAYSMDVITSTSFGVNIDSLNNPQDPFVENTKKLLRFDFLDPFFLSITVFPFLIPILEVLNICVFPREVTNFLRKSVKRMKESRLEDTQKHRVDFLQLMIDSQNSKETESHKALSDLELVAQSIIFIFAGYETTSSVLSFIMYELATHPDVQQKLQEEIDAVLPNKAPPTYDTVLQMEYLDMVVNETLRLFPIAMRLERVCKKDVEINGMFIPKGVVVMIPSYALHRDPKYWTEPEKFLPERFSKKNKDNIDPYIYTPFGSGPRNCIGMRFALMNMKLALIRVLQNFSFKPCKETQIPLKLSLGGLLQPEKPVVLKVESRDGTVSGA
# How it was run: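 Luminescent readout (RLU) proportional to CYP3A4 activity, from luciferin generated off a proluciferin substrate. Enzyme–substrate mix plus compound 10 min at room temp, NADPH regeneration 1 h, detection reagent 20 min.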
# [3] = qHTS assay to identify small molecule antagonists of the thyroid receptor (TR) signaling pathway (AID 743065); note: nearly all actives have a fitted effect of over 55% in size; note: potency is the fitted concentration of half-maximal effect; for activity, negative = inhibition: % is set by controls: 0 for no effect and ±100 for the full control effect
# How it was run: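 Antagonism measured as loss of luciferase signal in GH3 cells stably carrying a TRE-luciferase reporter, co-treated with compound and T3 (1 nM final) for 23.5 h at 37 C. Viability was read in the same well by CellTiter-Fluor.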
# [4] = qHTS assay to identify small molecule agonists of the TGF-beta/Smad signaling pathway (AID 1346859; active = well fitted activation curve with a large enough effect in the signal ratio in the repeat runs, not every such curve was filed as active; inconclusive = weak or mixed curves; the % refers to the signal ratio; note: potency is the fitted concentration of half-maximal effect)
# How it was run: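 Read-out: fluorescence at 460 and 530 nm (405 nm excitation) after a 2 hr room-temperature incubation with beta-lactamase FRET substrate. SBE-bla HEK 293T cells had been treated with test compounds for 5 hr at 37 C.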
# [5] = molecular target: Androgen receptor (Homo sapiens) (UniProt P10275); assay: qHTS assay to identify small molecule antagonists of the androgen receptor (AR) signaling pathway (AID 743035; active = well fitted inhibition curve with a large enough effect in the signal ratio in the repeat runs, not every such curve was filed as active; inconclusive = weak or mixed curves, or effect the other way; inactive = no such curve, though single readings can be large or run the other way; the % refers to the signal ratio; note: potency is the fitted concentration of half-maximal effect); conditions: HEK293 AR-UAS-bla, R1881-stimulated, beta-lactamase FRET, 16 h; activity change, negative = inhibition: at 58.5 µM (top of the series) unless noted
# Sequence of UniProt P10275 (P10275 whole entry, looked up): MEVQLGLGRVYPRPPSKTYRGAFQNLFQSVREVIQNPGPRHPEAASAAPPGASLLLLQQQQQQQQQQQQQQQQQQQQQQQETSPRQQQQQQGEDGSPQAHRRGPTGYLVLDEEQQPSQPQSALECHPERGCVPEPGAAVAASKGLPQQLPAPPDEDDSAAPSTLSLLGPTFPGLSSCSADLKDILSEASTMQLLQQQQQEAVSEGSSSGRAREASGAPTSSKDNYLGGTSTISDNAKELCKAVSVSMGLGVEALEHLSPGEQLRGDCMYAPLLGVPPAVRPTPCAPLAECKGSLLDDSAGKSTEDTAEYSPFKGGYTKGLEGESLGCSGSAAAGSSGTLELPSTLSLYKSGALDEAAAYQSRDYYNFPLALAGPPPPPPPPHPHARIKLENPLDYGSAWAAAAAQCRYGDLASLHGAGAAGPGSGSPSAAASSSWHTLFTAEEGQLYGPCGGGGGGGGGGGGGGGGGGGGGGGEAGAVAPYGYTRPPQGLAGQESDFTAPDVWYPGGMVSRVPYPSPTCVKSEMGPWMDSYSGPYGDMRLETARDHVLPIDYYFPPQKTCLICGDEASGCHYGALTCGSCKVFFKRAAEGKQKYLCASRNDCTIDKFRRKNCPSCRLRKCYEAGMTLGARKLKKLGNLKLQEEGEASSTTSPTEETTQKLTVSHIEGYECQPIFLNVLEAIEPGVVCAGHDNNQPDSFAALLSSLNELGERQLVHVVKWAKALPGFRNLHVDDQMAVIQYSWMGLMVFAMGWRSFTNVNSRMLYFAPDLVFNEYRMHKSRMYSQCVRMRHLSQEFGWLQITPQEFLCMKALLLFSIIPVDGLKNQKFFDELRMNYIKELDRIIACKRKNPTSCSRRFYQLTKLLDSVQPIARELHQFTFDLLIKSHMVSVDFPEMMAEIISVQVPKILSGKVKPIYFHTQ
# How it was run: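 Cell line: GeneBLAzer AR-UAS-bla GripTite (HEK293). Stimulus: R1881 added after compound. Exposure: 16 h, 37C, 5% CO2. Readout: LiveBLAzer B/G FRET fluorescence after 2 h at room temperature.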
# [6] = molecular target: Estrogen receptor beta (Homo sapiens) (UniProt Q92731); assay: qHTS assay to identify small molecule agonists of the estrogen receptor beta (ER-beta) signaling pathway (AID 1259377; active = well fitted activation curve with a large enough effect in the signal ratio in the repeat runs, not every such curve was filed as active; inconclusive = weak or mixed curves, or effect the other way; the % refers to the signal ratio; note: potency is the fitted concentration of half-maximal effect); conditions: ER-beta-UAS-bla HEK293T, beta-lactamase FRET ratio, 16 h; activation: at 92.4 µM (top of the series) unless noted
# Sequence of UniProt Q92731 (Q92731 whole entry, looked up): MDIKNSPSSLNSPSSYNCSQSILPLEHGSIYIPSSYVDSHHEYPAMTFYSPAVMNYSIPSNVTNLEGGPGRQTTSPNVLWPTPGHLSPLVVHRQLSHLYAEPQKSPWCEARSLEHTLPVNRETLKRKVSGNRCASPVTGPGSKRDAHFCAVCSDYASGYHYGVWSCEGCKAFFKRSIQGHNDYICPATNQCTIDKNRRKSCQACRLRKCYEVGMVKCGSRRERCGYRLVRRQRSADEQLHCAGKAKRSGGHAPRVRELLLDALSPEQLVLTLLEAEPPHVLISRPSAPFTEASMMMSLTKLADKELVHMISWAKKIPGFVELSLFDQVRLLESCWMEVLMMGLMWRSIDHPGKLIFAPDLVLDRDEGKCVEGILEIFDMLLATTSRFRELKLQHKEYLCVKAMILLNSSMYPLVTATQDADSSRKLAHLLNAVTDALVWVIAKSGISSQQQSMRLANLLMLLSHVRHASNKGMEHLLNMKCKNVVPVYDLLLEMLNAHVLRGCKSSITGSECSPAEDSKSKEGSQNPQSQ
# How it was run: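 Beta-lactamase reporter readout: fluorescence of LiveBLAzer B/G FRET substrate after 2 h at room temperature, following 16 h compound treatment of ER-beta-UAS-bla HEK293T cells at 37C in 2% charcoal-stripped FBS medium.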
# [7] = Caspase-3/7 induction in CHO-K1 cells by small molecules, qHTS cell viability counter screen (AID 1346979); note: potency is the fitted concentration of half-maximal effect; nearly all actives have a fitted effect of over 35% in size
# How it was run: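 CHO-K1 wt, 1,500 cells/well; 5hr pre-incubation 37C/5% CO2; compound pin transfer (DMSO); 16hr exposure; CellTiter-Fluor added, 1hr, fluorescence read.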
# [8] = molecular target: Estrogen receptor (Homo sapiens) (UniProt P03372); assay: qHTS assay to identify small molecule antagonists of the estrogen receptor alpha (ER-alpha) signaling pathway (AID 743069; active = well fitted curve in the direction sought with a large enough effect in the signal ratio in the repeat runs, not every such curve was filed as active; inconclusive = weak or mixed curves, or effect the other way; inactive = no such curve, though single readings can be large or run the other way; the % refers to the signal ratio; note: % is set by controls: 0 for no effect and ±100 for the full control effect); conditions: HEK293 ER-alpha-UAS-bla, beta-lactamase ratio, antagonist mode; activity, negative = inhibition: at 69.4 µM (top of the series) unless noted
# Sequence of UniProt P03372 (P03372 whole entry, looked up): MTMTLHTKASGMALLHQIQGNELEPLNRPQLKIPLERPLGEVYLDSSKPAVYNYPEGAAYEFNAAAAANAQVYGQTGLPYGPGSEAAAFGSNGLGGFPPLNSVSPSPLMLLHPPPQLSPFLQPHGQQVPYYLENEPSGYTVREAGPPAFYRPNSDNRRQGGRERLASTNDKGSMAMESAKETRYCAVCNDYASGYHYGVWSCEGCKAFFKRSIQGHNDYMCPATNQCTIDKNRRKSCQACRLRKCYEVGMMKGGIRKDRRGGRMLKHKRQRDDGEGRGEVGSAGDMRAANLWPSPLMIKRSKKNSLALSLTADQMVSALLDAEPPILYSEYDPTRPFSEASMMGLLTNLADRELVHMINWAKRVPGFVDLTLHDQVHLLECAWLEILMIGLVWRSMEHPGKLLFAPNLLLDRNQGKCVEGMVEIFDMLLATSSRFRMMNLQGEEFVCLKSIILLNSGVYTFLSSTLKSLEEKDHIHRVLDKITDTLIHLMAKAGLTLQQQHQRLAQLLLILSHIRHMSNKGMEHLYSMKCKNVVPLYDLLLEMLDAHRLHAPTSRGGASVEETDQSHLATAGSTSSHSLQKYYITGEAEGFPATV
# How it was run: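 Compound effects are measured against 17beta-estradiol stimulation in HEK293 cells with a UAS-controlled beta-lactamase reporter for ER-alpha. Exposure lasts 18 hr at 37C; LiveBLAzer B/G FRET substrate follows for 2 hr at room temperature.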
# [9] = qHTS assay to identify small molecule antagonists of the estrogen related receptor signaling pathway with the pleiotropic PPARgamma coactivator (PGC) from Tox21 10K library (AID 1224841; call rule not given here; note: potency is the fitted concentration of half-maximal effect; actives are mostly falling curves and most rising ones were filed inactive; nearly all actives have a fitted effect of over 50% in size)
# How it was run: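 Compound exposure ran 18 hours at 37 C in PGC/ERR cells (2,000/well) that had first rested 6 hours in a 37 C/5% CO2 incubator. Luciferase activity was then detected with One-Glo after a 30-minute room-temperature step.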
# [10] = qHTS RealTime-Glo MT Cell Viability Assay in HEK293 cells - 40 hour (AID 1224874); conditions: RealTime-Glo luminescence; max response: stronger effect = lower value; note: nearly all actives have a fitted effect of over 50% in size; note: potency is the fitted concentration of half-maximal effect
# How it was run: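 qHTS format; HEK293 cells with NanoLuc/prosubstrate reagent, 37 C/5% CO2 for 5 h pre-dosing; compounds 23 nL in DMSO; luminescence at each time point reflects viable cells.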
# [11] = A CellTox Green Cytotoxicity Assay to monitor cytotoxicity in HEK293 cells - 8 hour (AID 1224884); note: potency is the fitted concentration of half-maximal effect; nearly all actives have a fitted effect of over 35% in size
# How it was run: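 Each value comes from one timepoint of a single continuous run in which HEK293 cells with CellTox Green were exposed to compound for up to 40 h at 37 C, dye fluorescence rising with cell death.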
# [12] = qHTS assay to identify small molecule antagonists of the estrogen related receptor signaling pathway with the pleiotropic PPARgamma coactivator (PGC) cell viability counter screen (AID 1224822; note: potency is the fitted concentration of half-maximal effect;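 note: viability read after 17.5 h compound exposure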)
# How it was run: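 qHTS format, DMSO compound stocks pin-transferred onto PGC/ERR cells 6 h after plating; 17.5 h exposure at 37 C, then CellTiter-Fluor fluorescence.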
# [13] = molecular target: Progesterone receptor (Homo sapiens) (UniProt P06401); assay: qHTS assay to identify small molecule agonists of the progesterone receptor (PR) signaling pathway (AID 1346784; calls by dose curve; note: % is set by controls: 0 for no effect and ±100 for the full control effect; nearly all actives have a fitted effect of over 30% in size); conditions: PR-UAS-bla HEK293T, beta-lactamase FRET ratio, 16 h; activation: at 92.4 µM (top of the series) unless noted
# Sequence of UniProt P06401 (P06401 whole entry, looked up): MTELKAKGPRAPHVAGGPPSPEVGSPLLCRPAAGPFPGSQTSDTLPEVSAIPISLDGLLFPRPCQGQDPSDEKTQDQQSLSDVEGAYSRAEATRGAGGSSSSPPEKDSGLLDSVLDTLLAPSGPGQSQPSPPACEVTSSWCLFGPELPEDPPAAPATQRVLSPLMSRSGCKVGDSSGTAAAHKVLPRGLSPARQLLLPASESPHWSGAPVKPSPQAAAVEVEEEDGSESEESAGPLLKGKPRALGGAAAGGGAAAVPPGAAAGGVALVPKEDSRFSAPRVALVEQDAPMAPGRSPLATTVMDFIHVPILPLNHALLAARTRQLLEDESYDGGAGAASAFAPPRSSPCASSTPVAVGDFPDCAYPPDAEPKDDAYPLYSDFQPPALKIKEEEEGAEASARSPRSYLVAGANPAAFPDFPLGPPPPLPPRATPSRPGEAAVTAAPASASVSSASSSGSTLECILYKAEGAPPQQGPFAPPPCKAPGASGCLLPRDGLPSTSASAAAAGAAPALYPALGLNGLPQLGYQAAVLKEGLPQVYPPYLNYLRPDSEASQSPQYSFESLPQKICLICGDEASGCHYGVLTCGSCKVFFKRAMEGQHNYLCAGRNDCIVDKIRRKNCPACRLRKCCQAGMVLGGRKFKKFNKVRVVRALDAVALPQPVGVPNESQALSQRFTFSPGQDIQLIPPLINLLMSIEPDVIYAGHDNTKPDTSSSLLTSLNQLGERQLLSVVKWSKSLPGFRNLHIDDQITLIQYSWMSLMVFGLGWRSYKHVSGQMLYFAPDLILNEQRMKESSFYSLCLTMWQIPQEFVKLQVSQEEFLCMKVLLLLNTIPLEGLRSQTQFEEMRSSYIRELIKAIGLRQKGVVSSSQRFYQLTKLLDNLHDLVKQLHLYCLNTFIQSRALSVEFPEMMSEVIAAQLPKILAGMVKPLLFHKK
# How it was run: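 HEK 293T PR-UAS-bla reporter cells, 2% charcoal-stripped FBS; 6 hr settle at 37C/5% CO2, compound (DMSO) 16 hr, LiveBLAzer B/G FRET substrate 2 hr RT, fluorescence intensity read.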
# [14] = Human pregnane X receptor (PXR) small molecule agonists, qHTS cell viability counter screen (AID 1346977); note: nearly all actives have a fitted effect of over 50% in size; note: potency is the fitted concentration of half-maximal effect
# How it was run: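 Fluorescence read-out (CellTiter-Fluor) of viability in PXR-Luc HepG2 cells, multiplexed with the luciferase agonist read. Compounds in DMSO added after 5hr plating; 24hr total exposure at 37C, 5% CO2.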
# [15] = qHTS assay to identify small molecule agonists of the peroxisome proliferator-activated receptor delta (PPARd) signaling pathway - cell viability counter screen (AID 743211); conditions: PPARd-bla HEK293H viability, CellTiter-Glo luminescence, 17 h; activity change, negative = cytotoxicity: at 62.6 µM (top of the series); note: % is set by controls: 0 for no effect and ±100 for the full control effect; nearly all actives have a fitted effect of over 55% in size
# How it was run: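 Read-out: CellTiter-Glo luminescence, 30 min RT, measured in the same wells as the beta-lactamase reporter. Cells: GeneBLAzer PPAR delta UAS-bla HEK293H, 3000 cells/well, compound exposure 17 h at 37C.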
# [16] = molecular target: Peroxisome proliferator-activated receptor delta (Homo sapiens) (UniProt Q03181); assay: qHTS assay to identify small molecule agonists of the peroxisome proliferator-activated receptor delta (PPARd) signaling pathway (AID 743212; calls by dose curve; note: % is set by controls: 0 for no effect and ±100 for the full control effect); conditions: HEK293H PPARd-UAS-bla, beta-lactamase FRET ratio, 17 h; activation: at 62.6 µM (top of the series) unless noted
# Sequence of UniProt Q03181 (Q03181 whole entry, looked up): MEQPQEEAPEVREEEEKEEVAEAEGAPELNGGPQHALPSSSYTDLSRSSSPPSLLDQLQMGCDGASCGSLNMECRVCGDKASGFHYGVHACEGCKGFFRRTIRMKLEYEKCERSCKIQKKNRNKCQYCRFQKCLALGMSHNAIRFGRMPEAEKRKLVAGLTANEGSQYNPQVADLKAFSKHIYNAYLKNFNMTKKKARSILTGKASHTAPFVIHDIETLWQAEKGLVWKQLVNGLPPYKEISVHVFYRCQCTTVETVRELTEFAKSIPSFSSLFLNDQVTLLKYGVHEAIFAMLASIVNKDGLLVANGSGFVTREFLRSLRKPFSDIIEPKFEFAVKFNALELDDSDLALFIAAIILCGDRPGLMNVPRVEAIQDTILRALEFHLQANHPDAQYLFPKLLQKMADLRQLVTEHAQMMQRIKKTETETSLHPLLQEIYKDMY
# How it was run: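 HEK293H UAS-bla reporter cells, human PPARd system; compounds delivered in DMSO after 5 h plating, then at 37 C. Beta-lactamase FRET read, 2 h RT substrate step.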
# [17] = molecular target: Nuclear receptor subfamily 1 group I member 3 (Homo sapiens) (UniProt Q14994); assay: qHTS assay to identify small molecule agonists of the constitutive androstane receptor (CAR) signaling pathway (AID 1224839); note: potency is the fitted concentration of half-maximal effect; nearly all actives have a fitted effect of over 15% in size
# Sequence of UniProt Q14994 (Q14994 whole entry, looked up): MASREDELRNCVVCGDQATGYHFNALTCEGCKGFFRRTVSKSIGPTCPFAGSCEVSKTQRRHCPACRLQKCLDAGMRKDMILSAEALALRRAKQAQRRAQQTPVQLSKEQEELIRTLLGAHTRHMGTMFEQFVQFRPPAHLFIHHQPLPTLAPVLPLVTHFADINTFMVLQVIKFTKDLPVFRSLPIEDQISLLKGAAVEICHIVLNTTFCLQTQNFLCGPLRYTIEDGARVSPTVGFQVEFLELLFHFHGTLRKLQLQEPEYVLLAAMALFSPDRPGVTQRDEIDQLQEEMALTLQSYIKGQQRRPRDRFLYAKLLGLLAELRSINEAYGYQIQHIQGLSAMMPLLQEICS
# How it was run: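 Luminescence read-out (ONE-Glo, 30 min, room temperature) from double-stable HepG2-CYP2B6-hCAR cells exposed 24 h to 15-point compound series in presence of 0.75 uM PK11195 final.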
# [18] = qHTS assay to identify small molecule agonists of H2AX - cell viability counter screen (AID 1224847; calls by dose curve; note: potency is the fitted concentration of half-maximal effect; nearly all actives have a fitted effect of over 30% in size)
# How it was run: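 CHO-K1 wt, 1000 cells/well, o/n 37C; cpds 15 conc, 3 h 37C, 0.76% DMSO; CellTiter-Glo, 30 min RT, luminescence.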
# [19] = qHTS assay to identify small molecule antagonists of the estrogen related receptor signaling pathway with the pleiotropic PPARgamma coactivator (PGC) from Tox21 10K library - cell viability counter screen (AID 1224840; active = well fitted cell-killing curve with a large enough effect in the repeat runs, not every such curve was filed as active; inconclusive = weak or mixed curves, or effect the other way; inactive = no such curve, though single readings can be large or run the other way; note: % is set by controls: 0 for no effect and ±100 for the full control effect; nearly all actives have a fitted effect of over 40% in size)
# How it was run: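 Compounds in DMSO, alongside positive and negative controls, were pinned onto PGC/ERR cells (2,000 per well). Exposure lasted 17.5 hours at 37 C, followed by a 30-minute CellTiter-Fluor incubation and fluorescence reading.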
# [20] = molecular target: Acetylcholinesterase (Homo sapiens) (UniProt P22303); assay: Acetylcholinesterase (AChE) small molecule antagonists: fluorescence cell-based qHTS assay (AID 1347398; calls by dose curve; note: nearly all actives have a fitted effect of over 50% in size; note: potency is the fitted concentration of half-maximal effect); conditions: Potency: AChE activity
# Sequence of UniProt P22303 (P22303 whole entry, looked up): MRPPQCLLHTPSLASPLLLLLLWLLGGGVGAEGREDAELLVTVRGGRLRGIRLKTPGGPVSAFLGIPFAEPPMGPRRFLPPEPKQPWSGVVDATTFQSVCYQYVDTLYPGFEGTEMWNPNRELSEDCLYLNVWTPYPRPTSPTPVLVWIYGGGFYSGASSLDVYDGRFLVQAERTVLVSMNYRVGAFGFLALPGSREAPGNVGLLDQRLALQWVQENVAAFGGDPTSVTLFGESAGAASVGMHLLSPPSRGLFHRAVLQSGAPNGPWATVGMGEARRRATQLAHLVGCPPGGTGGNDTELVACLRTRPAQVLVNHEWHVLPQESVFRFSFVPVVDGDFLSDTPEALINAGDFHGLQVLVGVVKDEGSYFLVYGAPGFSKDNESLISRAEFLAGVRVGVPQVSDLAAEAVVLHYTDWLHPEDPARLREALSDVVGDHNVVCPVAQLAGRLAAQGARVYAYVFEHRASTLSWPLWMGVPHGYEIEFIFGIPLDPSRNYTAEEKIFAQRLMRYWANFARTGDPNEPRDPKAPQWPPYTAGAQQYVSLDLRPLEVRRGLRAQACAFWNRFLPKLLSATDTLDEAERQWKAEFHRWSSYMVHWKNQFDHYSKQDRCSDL
# How it was run: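 Fluorimetric cell-based assay: intact SH-SY5Y cells, 30 min compound preincubation at 37 C, acetylthiocholine substrate with thiol probe Thiolite Green, 40 min RT development, fluorescence 490/520 nm.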
# Tags give direction and shape of the fitted curve or compound fluorescence and quenching.
smiles,measurement,setting,value
c1ccc(CCCN2CCN(CCOC(c3ccccc3)c3ccccc3)CC2)cc1,Potency,[1],inconclusive: 27.6 µM [cytotoxic]
NNC(=O)c1ccc(O)cc1,Potency,[1],inactive
CCCCN(CCCC)C(=S)[S-].CCCCN(CCCC)C(=S)[S-].[Ni+2],Potency,[2],inactive
CCOC(=O)COc1ccc(Cl)cc1Cl,Potency,[3],inactive
same,Potency,[4],"inconclusive: 49 µM [rising, partial curve, poor fit]"
N#CC(C#N)=Cc1ccc(O)c(O)c1,Potency,[5],"inconclusive: 4.77 µM [rising, full curve]"
same,activation,[6],inconclusive: 5.14% [at 42.5 µM]
same,Potency,[7],"inconclusive: 13.3 µM [cytotoxic, partial curve]"
CC(C)NC(C)Cc1ccc(I)cc1 (stereo not given),Potency,[3],inconclusive: 23.7 µM [inhibitor]
CCC1(C2=NCCN2)Cc2ccccc2O1 (stereo not given),Potency,[5],active: 19 µM
same,Potency,[3],"inconclusive: 33.5 µM [inhibitor, single point]"
same,"activity, negative = inhibition",[8],inconclusive: -21.1%
same,Potency,[6],"inconclusive: 0.422 µM [activator, full curve, poor fit]"
CCn1cc(C(=O)O)c(=O)c2ccc(C)nc21,Potency,[9],"inconclusive: 2.73 µM [falling, single point]"
CCOC(=O)c1ccccc1S(=O)(=O)NC(=O)Nc1nc(Cl)cc(OC)n1,Potency,[10],"inconclusive: 61.6 µM [rising, single point]"
same,Potency,[11],"inconclusive: 54.9 µM [activator, single point]"
same,Potency,[2],"inconclusive: 63.3 µM [inhibitor, partial curve]"
CCCN1CCc2cc(O)cc3c2[C@H]1Cc1ccc(O)c(O)c1-3,Potency,[12],inconclusive: 25.6 µM [cytotoxic]
c1ccc2sc(C3(N4CCCCC4)CCCCC3)cc2c1,Potency,[12],"inconclusive: 29.8 µM [cytotoxic, partial curve, poor fit]"
NC1(c2ccccc2)CCCCC1,Potency,[13],inactive
same,Potency,[4],inactive
same,Potency,[14],"inconclusive: 60.6 µM [cytotoxic, partial curve]"
COc1ccccc1N1CCNCC1,Potency,[15],inactive
same,Potency,[12],inactive
CC(Cl)C(=O)O (stereo not given),Potency,[13],inactive
NC(N)=Nc1ccc2[nH]c3c(c2c1)C[C@@]1(O)[C@H]2Cc4ccc(O)c5c4[C@@]1(CCN2CC1CC1)[C@H]3O5,Potency,[12],inconclusive: 18.1 µM [cytotoxic]
CCCC[N+]1(C)CCCC1 (tested in a mixture with another compound),Potency,[14],"inconclusive: 61.9 µM [cytotoxic, single point]"
C=CCOC(=O)C(C)(C)OC(=O)c1cc(-n2c(=O)cc(C(F)(F)F)n(C)c2=O)ccc1Cl,activation,[16],inconclusive: 0.143%
same,Potency,[17],"inconclusive: 53.4 µM [activator, partial curve]"
same,Potency,[9],"inconclusive: 16.9 µM [falling, partial curve]"
same,Potency,[7],"inconclusive: 67.3 µM [cytotoxic, partial curve, poor fit]"
O=C(O)c1nc(Cl)ccc1Cl,Potency,[18],"inconclusive: 50.5 µM [rising, single point]"
same,Potency,[7],"inconclusive: 68.6 µM [rising, partial curve, poor fit]"
same,Potency,[2],inactive
CCCCC#N,Potency,[15],inactive
same,Potency,[19],inactive
same,Potency,[4],inactive
same,Potency,[14],inactive
CN1C(=O)COc2c(C(=O)NC3CN4CCC3CC4)cc(Cl)cc21 (stereo not given),Potency,[3],"inconclusive: 33.5 µM [inhibitor, single point]"
same,Potency,[16],inactive
same,Potency,[20],"inconclusive: 34.7 µM [inhibitor, partial curve]"
NC1CCc2cc(O)c(O)cc2C1 (stereo not given),Potency,[12],inconclusive: 21.1 µM [cytotoxic]
O=C(CCCN1CCC(n2c(=O)[nH]c3ccccc32)CC1)c1ccc(F)cc1,Potency,[13],inactive
same,Potency,[14],"inconclusive: 29.8 µM [cytotoxic, partial curve]"
same,Potency,[20],inactive
OP(O)c1ccccc1,Potency,[5],inactive
same,Potency,[8],inactive
same,Potency,[6],inactive
COc1ncc(F)c2nc(S(=O)(=O)Nc3c(F)cccc3F)nn12,Potency,[5],inactive
same,Potency,[11],"inconclusive: 8.76 µM [activator, partial curve]"
CCC1CCC(=O)O1 (stereo not given),Potency,[6],"inconclusive: 21.9 µM [activator, partial curve]"
same,Potency,[14],inactive
CC(N)Cc1c[nH]c2ccc(OCc3cccs3)cc12 (stereo not given),Potency,[12],"inconclusive: 23.7 µM [cytotoxic, partial curve, poor fit]"
CCCCOC(C)=O,max response,[10],inactive: 8.22%
same,Potency,[14],inactive
